“And” between values parts separate entries of the source, which are not always exact repeats. Identical values can stand only once. The campaign covered roughly 48,000 compounds. About 1,200 (2.5%) were called active. Not shown: some 2% with an inconclusive outcome.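 Rule for the calls: active = activation of at least 60% and not above a set upper limit (about 1 call in 100 departs from these limits); inconclusive = activation of 40% to 60%, or above that upper limit; inactive = activation under 40%.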 Some of the results follow.
Each compound was assayed against Probable G-protein coupled receptor 32 (Homo sapiens) (UniProt O75388) (assay: qHTS for Agonists of Human Resolvin D1 Receptor DRV1). Conditions: CHO-K1 GPR32 beta-arrestin PathHunter luminescence, 90 min; at 76.9 µM; active compounds read high; zero percent set by DMSO-only wells.
Chain of UniProt O75388 (O75388 whole entry, looked up, the tested form may be a part): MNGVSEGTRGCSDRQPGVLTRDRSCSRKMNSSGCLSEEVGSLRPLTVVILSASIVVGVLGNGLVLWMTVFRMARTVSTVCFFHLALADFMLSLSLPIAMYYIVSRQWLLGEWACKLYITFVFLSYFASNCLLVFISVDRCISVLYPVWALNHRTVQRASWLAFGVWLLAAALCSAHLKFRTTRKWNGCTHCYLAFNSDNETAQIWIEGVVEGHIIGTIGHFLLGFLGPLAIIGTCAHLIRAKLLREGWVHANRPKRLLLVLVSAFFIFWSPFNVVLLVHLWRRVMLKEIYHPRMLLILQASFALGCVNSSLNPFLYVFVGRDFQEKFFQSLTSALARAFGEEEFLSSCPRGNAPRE
How it was run: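 Agonism was scored as beta-arrestin recruitment to ProLink-fused GPR32 in stably transfected CHO-K1 cells, giving a chemiluminescent beta-Gal signal; compounds were incubated 90 min at 37 °C.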
Note: 0% is about no effect.

Row | Structure (SMILES) | activation
1 | CN(C)CCC=C1c2ccccc2C=Cc2ccccc21 | inactive: 19.1% and inactive: -3.6%
2 | CCN1CCN(c2ncnc3c2cnn3-c2cccc(C)c2)CC1 | inactive: -11.1%
3 | COc1ccc(CCNC(=O)Cn2cc(S(=O)(=O)Cc3ccc(F)cc3)c3ccccc32)cc1OC | inactive: -10.8%
4 | CCOc1ccccc1NC(=O)C1CCCN1S(=O)(=O)c1ccc2nc(-c3ccccc3)[nH]c2c1 (stereo not given) | inactive: -34.2%
5 | CN(C)CCc1c[nH]c2ccc(C[C@H]3COC(=O)N3)cc12 | inactive: -13.8%
6 | O=C(NC1CCCCC1)c1ccc2c(c1)N(Cc1ccccc1Cl)C(=O)c1ccccc1S2 | inactive: -10.4%
7 | Cc1ccc(-c2cc(C(F)(F)F)n3ncc(-c4ccccc4)c3n2)cc1 | inactive: 10.9%
8 | CCOc1ccc(C(=O)c2oc3ccccc3c2NC(=O)c2cc(-c3ccc(C)cc3)on2)cc1 | inactive: -10.6%
9 | CCCCN(C)C(=O)CSc1nc2ccccc2nc1Cc1ccc(C)cc1 | inactive: 10.1%
10 | CCOc1ccc(NC(=O)c2cc(S(=O)(=O)N3CCN(c4ccccc4F)CC3)ccc2F)cc1 | inactive: 1.41%
11 | Cc1ccc2[nH]c(=O)c3cc(C(=O)NC4CCC(C)CC4)sc3c2c1 (stereo not given) | inactive: -2.1%
12 | C[N+]1(C)CCC(=C(c2ccccc2)c2ccccc2)CC1 | inactive: -14%
13 | COc1ccccc1CNC(=O)C(=O)NCC(c1cccs1)S(=O)(=O)c1cccs1 (stereo not given) | inactive: 28.6%
14 | CCOc1ccc(Nc2c(S(=O)(=O)c3ccc(C)cc3)cnc3ccc(F)cc23)cc1 | inactive: -44%
15 | Cc1ccc2oc(C(=O)N(Cc3sccc3C)C3CCS(=O)(=O)C3)c(C)c2c1 (stereo not given) | inactive: -32%
16 | COc1ccc(-n2c(=O)c3c4c(sc3n(C)c2=O)CN(C(C)=O)CC4)cc1 | inactive: -11.5%
17 | O=c1cc(-c2ccccc2)n2c(SCc3ccccc3Cl)nnc2[nH]1 | inactive: -2.6%
18 | COc1cccc2c1cc1c(=O)n(CC(=O)NCc3ccco3)nc(C)n12 | inactive: -1.78%
19 | COc1ccccc1C(=O)Nc1nnc2n1CCS2 | inactive: 6.74%
20 | Cc1ccc(CCNC(=O)CN(c2ccc(C)cc2)S(=O)(=O)N(C)C)cc1 | inactive: 25.7%
21 | CC(C)OCc1cc(CN2CCN(c3cccc(C(F)(F)F)c3)CC2)c(O)c2ncccc12 | inactive: -12.8%
22 | Cc1c(Cl)cccc1NC(=O)CSc1nc(=O)n(Cc2ccco2)c2c1CCC2 | inactive: -5.66%

Row | Structure (SMILES) | activation
23 | CN(C)c1ccc(CNC(=O)C2CCN(Cc3cc4ccccc4n3Cc3ccccc3)CC2)cc1 | inactive: -38.3%
24 | CCSc1nnc2c(n1)OC(c1ccc(OC)c(OC)c1)N(C(C)=O)c1ccccc1-2 (stereo not given) | inactive: -18.6%
25 | CCCCCNC(=O)C1CCC(Cn2c(=O)c3sccc3n(CC(=O)NCc3cccc(OC)c3OC)c2=O)CC1 (stereo not given) | inactive: -10.8%
26 | CCCCC(=O)Nc1nnc(S(=O)(=O)N(C)Cc2ccccc2)s1 | inactive: -3.95%
27 | Cc1cccc(N(C)S(=O)(=O)c2cc3[nH]c(=O)c(=O)[nH]c3cc2C)c1 | inactive: -2.83%
28 | NS(=O)(=O)c1cc2c(cc1Cl)NCNS2(=O)=O | inactive: -0.915% and inactive: 14%
29 | O=C1C(=O)N(C2CCN(C(=O)c3ccccc3F)CC2)CCN1Cc1ccc(F)cc1 | inactive: 13.7%
30 | COc1ccc(Cl)cc1NC(=O)CSc1ccc2nnc(CCNS(=O)(=O)c3ccccc3)n2n1 | inactive: -10.5%
31 | Cc1ccc(-c2noc(CSc3nnc(C)n3-c3ccc(C)c(C)c3)n2)cc1 | inactive: -8.97%
32 | CCCN(CCC)C(=O)Cn1c(=O)n(CCCCCC(=O)NCc2ccccc2Cl)c(=O)c2sccc21 | inactive: -16%
33 | CCCOc1ccc(-c2cc(C(F)(F)F)c(C#N)c(SCCC(=O)O)n2)cc1 | inactive: 21.4%
34 | Cc1ccc(S(=O)(=O)C(CNC(=O)COc2ccccc2)c2ccco2)cc1 (stereo not given) | inactive: -22.1%
35 | CC(C)CCNC(=O)C(Cc1ccccc1)NS(=O)(=O)c1ccc2c(c1)c(=O)n(C)c(=O)n2C (stereo not given) | inactive: -8.67%
36 | Cc1cc(C)n(-c2nc3cc(Cl)ccc3nc2N2CCN(c3ccccc3F)CC2)n1 | inactive: -22.9%
37 | CS(=O)(=O)N1CCc2cc(C(=O)Nc3ccc(C(F)(F)F)cc3)ccc21 | inactive: -20.7%
38 | O=C(Nc1ccccc1C(=O)OCc1cc(=O)n2nc(C3CC3)sc2n1)c1cccc(F)c1 | inactive: 2.8%
39 | Cc1ccc(CNC(=O)CSc2nc3n[nH]c(C)c3c(=N)n2-c2ccccc2Cl)cc1 | inactive: -17.4%
40 | O=C(Nc1ccc(F)c(Cl)c1)N1CCC(CN2CCOCC2)CC1 | inactive: -1.73%
41 | COc1ccccc1CNC(=O)CSc1nnc(C)c2c(C)n(-c3ccccc3)nc12 | inactive: -5.06%
42 | CN1C(=O)C2(SCC(=O)N2c2ccc(Cl)cc2)c2ccccc21 (stereo not given) | inactive: -25.8%
43 | COCCNC(=O)c1ccc(-c2nc(CS(=O)(=O)c3ccccc3)c(C)o2)cc1 | inactive: 5.35%
44 | Cc1nc2sccn2c(=O)c1S(=O)(=O)Nc1cc(C(F)(F)F)ccc1Cl | inactive: -10.5%

Row | Structure (SMILES) | activation
45 | Cc1ccccc1OCCCCn1nnc2sc3c(c2c1=O)CCC(C)C3 (stereo not given) | inactive: 17.2%
46 | CCOCCCn1c(SCC(=O)Nc2ccccc2Cl)nc2c(oc3ccccc32)c1=O | inactive: -34.6%
47 | Cc1ccc(CCNC(=O)c2ccc3c(c2)nc2n3CCOC2)cc1 | inactive: -5.96%
48 | CCOc1ccc(NCc2nc3ccccc3n2CCOc2ccc(C)cc2)cc1 | inactive: -6.85%
49 | CC(=O)N1CCCc2cc(S(=O)(=O)N3CCCC(C(=O)NCc4ccc(C)cc4)C3)ccc21 (stereo not given) | inactive: 11.5%
50 | CCOc1ccc(NC(=O)CSc2nc3ccsc3c(=O)n2CCCCCC(=O)O)cc1 | inactive: -18.8%
51 | O=C(CSc1nc2c(c(=O)[nH]1)CN(Cc1ccc3c(c1)OCO3)CC2)Nc1ccccc1Cl | inactive: 36.8%
52 | Nc1ccc(C(=O)Oc2ccccc2)c(O)c1 | inactive: 4.38%
53 | CCc1nn2c(=O)c(S(=O)(=O)Nc3ccc(C(C)C)cc3)c(C)nc2s1 | inactive: 13%
54 | CCc1ccc(-n2nc3ccc(NC(=O)COc4ccc(OC)cc4)cc3n2)cc1 | inactive: -7.81%
55 | CNNCc1ccc(C(=O)NC(C)C)cc1 | inactive: -16.8%
56 | COc1cccc(Cn2c(CNS(=O)(=O)c3ccc(Cl)s3)nc3cccnc32)c1 | inactive: -18.3%
57 | O=C(Nc1cccc(F)c1)c1oc2ccccc2c1NC(=O)C12CC3CC(CC(C3)C1)C2 | inactive: 0.958%
58 | CCCCCn1cc2c(c1-c1ccccc1Br)c(=O)n(C)c(=O)n2C | inactive: -26.4%
59 | O=S(=O)(c1ccccc1)c1nnn2c1nc(NCc1ccccc1)c1cc(Cl)ccc12 | inactive: -16.6%
60 | CC(C)c1ccc(NC(=O)CCS(=O)(=O)c2ccc3c(c2)CC(=O)N3C)cc1 | inactive: 27.2%
61 | Cc1nc2nc(C)c(CCC(=O)NCc3ccccc3)c(C)n2n1 | inactive: -3.07%
62 | CCOc1ccc2ncc3c(-c4cccc(OC)c4)nn(-c4ccccc4)c3c2c1 | inactive: 13.7%
63 | Cc1ccc2occ(CC(=O)Nc3ccc(S(=O)(=O)N4CCC(C)CC4)cc3)c2c1 | inactive: -4.11%
64 | CCC(C)NC(=O)Cn1c(=O)n(Cc2ccc(C(=O)NCc3ccc(C)cc3)cc2)c(=O)c2ccccc21 (stereo not given) | inactive: -12.4%
65 | COc1cccc(Cc2nc3ccccc3nc2SCC(=O)Nc2cc(OC)ccc2OC)c1 | inactive: -6.36%
66 | CCOc1cc(-c2ccc(OC(=O)c3ccccc3)c(OC)c2)cc(=O)c2c(C)oc(C)c12 | inactive: -20.2%

Row | Structure (SMILES) | activation
67 | CCOCCn1ccc2c(OCC(=O)Nc3cccc(F)c3)cccc2c1=O | active: 76.8%
68 | CCOc1ccccc1CNCCSc1nnnn1C | inactive: 16.9%
69 | O=c1c2sc3ccccc3c2n(Cc2ccccc2)c(=O)n1CCc1ccccc1 | inactive: -16.9%
70 | COc1ccc(C)cc1Nc1ncnc2c1c(-c1ccccc1)cn2-c1ccc(C)cc1 | inactive: -33.3%
71 | CCN(CCCNC(=O)CN1N=C(c2ccccc2)CCC1=O)c1ccccc1 | inactive: -21.2%
72 | Cc1ccc(C2c3c(oc4ccccc4c3=O)C(=O)N2c2nnc(C)s2)cc1 (stereo not given) | inactive: -0.0204%
73 | COc1ccc(OC)c2sc(N3CCN(C(=O)C4COc5ccccc5O4)CC3)nc12 (stereo not given) | inactive: -8.8%
74 | COc1ccc(S(=O)(=O)N2CCC(C(=O)Nc3cc(C(F)(F)F)ccc3Cl)CC2)cc1 | inactive: -6.39%
75 | O=c1[nH]c(=O)n([C@H]2C[C@H](O)[C@@H](CO)O2)cc1F | inactive: 5.27%
76 | Cc1cc(C)c2sc(N3CCN(C(=O)c4ccc(N(C)C)cc4)CC3)nc2c1 | inactive: 11.4%
77 | Cc1ccc(S(=O)(=O)c2c(O)cc(C)c(NS(=O)(=O)c3ccc(Cl)cc3)c2C)cc1 | inactive: 31.8%
78 | COc1ccccc1N1CCN(S(=O)(=O)c2c(C)nc3sccn3c2=O)CC1 | inactive: 0.174%
79 | CCCCCCCCCCCCCCCCCC(=O)OCC(O)CO (stereo not given) | inactive: 0.0055%
80 | CC(C)c1nn2c(=O)cc(COC(=O)c3ccco3)nc2s1 | inactive: -39.4%
81 | COc1ccccc1C(=O)Nc1ccc(C(=O)OCc2cc(=O)n3nc(C4CC4)sc3n2)cc1 | inactive: -1%
82 | O=C(CSc1nc(=O)[nH]c2c1CCCC2)NCc1ccccc1 | inactive: -4.08%
83 | COc1ccc(N2C(=O)CSC23C(=O)N(CC(=O)NCCc2ccccc2)c2ccccc23)cc1 (stereo not given) | inactive: 25.5%
84 | Cc1c(C)c2cc3c(c(C)c2oc1=O)OCN(CCc1ccc(F)cc1)C3 | inactive: -20.8%
85 | Cc1nn2c(C)c(C(=O)NC(C)(C)C)cnc2c1-c1ccc(F)cc1 | inactive: -16.1%
